Test results reported in PubChem BioAssay AID1768 (National Center for Advancing Translational Sciences (NCATS), 2009).
About 620 (0.23%) of roughly 270,000 compounds were called active. This list was built around the results that the source calls inconclusive (neither active nor inactive); the mix of calls is not that of the screen. The call rests on the fitted dose curve; in most records, active means well fitted inhibition curve with a large enough effect in the polarisation, with a control signal flat (not every such curve was filed as active); inconclusive means small, poorly fitted or top-dose-only effect, or effect the other way, or a change in a side signal; inactive means no such curve, though single readings can be large or run the other way; the % refers to the polarisation. Potencies of inconclusive entries are doubtful fits and often do not repeat. “Side channel” marks fits to a control or component signal instead of the main read-out.

biological target: Menin (Homo sapiens) (UniProt O00255); experiment: qHTS Assay for Inhibitors Targeting the Menin-MLL Interaction in MLL Related Leukemias: Competition With Texas Red Labeled MLL-derived Mutant Peptide; conditions: fluorescence polarization; FP activity change, negative = inhibition: at 61.6 µM (top of the series); on FP activity change, negative = inhibition: % of control where 0% means no effect
Potency means the concentration at half of the fitted maximal effect; tags describe the fitted curve by direction and shape or compound fluorescence and quenching.

Chain of UniProt O00255 (O00255 whole entry, looked up): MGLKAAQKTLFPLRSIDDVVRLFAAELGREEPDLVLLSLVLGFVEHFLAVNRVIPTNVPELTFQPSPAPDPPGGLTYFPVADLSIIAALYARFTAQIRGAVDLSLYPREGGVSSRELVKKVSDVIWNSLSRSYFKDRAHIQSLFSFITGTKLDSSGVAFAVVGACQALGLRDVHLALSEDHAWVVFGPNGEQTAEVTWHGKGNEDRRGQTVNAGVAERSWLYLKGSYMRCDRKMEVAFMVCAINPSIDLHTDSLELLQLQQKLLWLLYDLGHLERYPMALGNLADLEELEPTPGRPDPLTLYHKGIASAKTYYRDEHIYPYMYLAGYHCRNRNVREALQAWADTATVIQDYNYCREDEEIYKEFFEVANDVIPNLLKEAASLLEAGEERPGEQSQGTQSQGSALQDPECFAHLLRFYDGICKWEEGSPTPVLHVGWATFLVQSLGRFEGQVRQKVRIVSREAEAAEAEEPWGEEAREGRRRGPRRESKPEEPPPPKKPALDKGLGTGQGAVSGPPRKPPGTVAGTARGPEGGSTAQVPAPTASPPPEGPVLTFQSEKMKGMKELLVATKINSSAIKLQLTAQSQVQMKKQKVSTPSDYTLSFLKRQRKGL

Potency, inconclusive:
COc1cc(COCC(O)CN2CCc3ccccc3C2)cc(OC)c1OC (stereo not given) 12.6 µM [inhibitor, partial curve]
Cn1c(=O)c(Nc2ccc(O)cc2)c2c3c(cccc31)C(=O)c1ccccc1-2 14.1 µM [quencher, side channel, partial curve]
Cc1cccc(NC(=O)NNC(=O)c2cc(-c3ccccc3Cl)nc3ccccc23)c1 39.8 µM [inhibitor, single point]
O=[N+]([O-])c1ccccc1C1Nc2cccc3cccc(c23)N1 11.2 µM [quencher, side channel, partial curve]
CC[C@H](C)C(=O)O[C@H]1CCC=C2C=C[C@H](C)[C@H](CC[C@@H]3C[C@@H](O)CC(=O)O3)[C@H]21 7.94 µM [fluorescent, side channel, full curve]
COc1cc(/C=C(\C#N)c2nc3c(s2)CC(C)CC3)ccc1O (stereo not given) 28.2 µM [quencher, side channel, single point]
CCOC(=O)c1c(-n2c(C)cc(C=O)c2C)sc2c1CCCC2 17.8 µM [fluorescent, side channel, partial curve, poor fit]
Cc1ccccc1NS(=O)(=O)c1ccc(NC(=O)c2ccco2)cc1 25.1 µM [quencher, side channel, single point]
O=[N+]([O-])c1ccc(N2CCN(S(=O)(=O)c3ccc4ccccc4c3)CC2)cc1NCc1ccco1 10 µM [inhibitor, partial curve]
COC(=O)c1sccc1S(=O)(=O)NC(C)c1cnn(-c2ccc(OC)cc2)c1C (stereo not given) 15.8 µM [inhibitor, partial curve]
Cc1cc(C)nc(NC(=O)/C=C/c2ccc(Cl)cc2Cl)c1 6.31 µM [quencher, side channel, partial curve]
CN(CC(=O)Nc1ccc(Cl)cc1)C(=O)CCC1CCCC1 39.8 µM [fluorescent, side channel, single point]
CC(=O)N1C(=O)C(=C2C=C(C)OC(C)=C2)c2ccccc21 5.01 µM [inhibitor, full curve]
CCOC(=O)N1CCN(C(=O)CN(C2CCCCC2)S(=O)(=O)c2c(C)cc(C)cc2C)CC1 3.55 µM [fluorescent, side channel, full curve]
Cc1ccc(S(=O)(=O)Nc2cc3c(C(=O)Nc4ccccc4)c(C)oc3c3ccccc23)cc1 22.4 µM [quencher, side channel, partial curve]
O=C(Nc1ccc(F)cc1)c1ccc(S(=O)(=O)NCc2cccnc2)cc1 5.01 µM [inhibitor, full curve, poor fit]
COc1ccc(N=Cc2oc3ccc4ccccc4c3c2O)cc1 39.8 µM [quencher, side channel, single point]
O=C(/C=C/c1ccco1)NC(=S)Nc1ccc(Cl)cn1 28.2 µM [quencher, side channel, single point]
CCc1cccc2c(C(=O)COC(=O)c3ccccc3)c[nH]c12 17.8 µM [quencher, side channel, partial curve]
Cc1ccc(NC(=O)CCNC(=O)Cn2ccc3ccccc3c2=O)cc1F 28.2 µM [inhibitor, partial curve]
CCn1c(CNC(=O)c2ccccc2F)nnc1SCc1nc2ccccc2c(=O)[nH]1 8.91 µM [inhibitor, full curve, poor fit]
Cc1sc2nc(CSc3ccc([N+](=O)[O-])cc3)[nH]c(=O)c2c1C 25.1 µM [quencher, side channel, partial curve]
Cc1ccc(C(=O)Nc2cccc(C(=O)N/N=C/c3ccc(O)cc3)c2)cc1 28.2 µM [quencher, side channel, single point]
Cc1ccc(-c2nnn(CC(=O)N(c3ccccc3)C(C(=O)NC(C)(C)C)c3cccs3)n2)o1 (stereo not given) 15.8 µM [fluorescent, side channel, partial curve]
Cn1c(SCC(=O)N/N=C/C=C\c2ccco2)nc2ccccc21 31.6 µM [quencher, side channel, single point]
Cc1oc2c(c(C)cc3oc(=O)c(CC(=O)N[C@@H](CCCNC(N)=O)C(=O)O)c(C)c32)c1C 14.1 µM [inhibitor, partial curve]
Cc1[nH]n(-c2ccccc2)c(=O)c1C=Nc1ccc(S(=O)(=O)Nc2nccs2)cc1 7.08 µM [quencher, side channel, partial curve]
Cc1c(C(=O)O)cccc1-c1ccc(/C=N/Nc2ccc(Br)cc2)o1 11.2 µM [quencher, side channel, partial curve]
O=C(OCc1ccc(Br)cc1F)c1cc2ccccc2oc1=O 31.6 µM [fluorescent, side channel, single point]

FP activity change, negative = inhibition, inconclusive:
CC(C)CCC(C)NC(=O)C1CCN(S(=O)(=O)/C=C/c2ccccc2)CC1 (stereo not given) -14.2% [phenotype inactive]

FP activity change, negative = inhibition, inactive:
CC1(C)CC(=O)c2sc(NC(=O)CCS(=O)(=O)c3ccccc3)nc2C1 25.7%
Cc1nc2cc(-c3cccc(F)c3)nn2c(N2CCN(C(=O)c3ccco3)CC2)c1C 4.46%
COc1ccccc1OCc1ccc(C(=O)OCC2CCCO2)o1 (stereo not given) 10.7%
CO[C@H]1COC(=O)[C@H](C)NC(=O)C/C=C\[C@@H](C)[C@@H](NS(=O)(=O)c2ccc(C)cc2)COC(=O)C/C=C\[C@@H]1C -0.158% [at 11.7 µM]
O=C(CNS(=O)(=O)c1cccs1)N1CCN(c2ccccc2F)CC1 -0.667%
